# Assay results taken from PubChem BioAssay AID504332 (National Center for Advancing Translational Sciences (NCATS), 2011).
# The campaign covered roughly 350,000 compounds. About 31,000 (8.9%) were called active. Inconclusive means that the source gave no clear call. Such entries were picked first, then a sample of the others. Calls come from the whole dose curve; as a rule, active = well fitted inhibition curve with a large enough effect; inconclusive = small, poorly fitted or top-dose-only effect; inactive = no such curve, though single readings can be large or run the other way. Potencies of inconclusive entries are doubtful fits and often do not repeat. The source holds several records for some structures; these can differ, active in one and inactive in another.
# Target: Histone-lysine N-methyltransferase EHMT2 (Homo sapiens) (UniProt Q96KQ7)
# Test: qHTS Assay for Inhibitors of Histone Lysine Methyltransferase G9a; note: nearly all actives have a fitted effect of over 75% in size
# Settings: G9a H3K9 monomethylation, AlphaScreen, 2 h; activity, negative = inhibition: at 59 µM (top of the series) unless noted
# Method in brief: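 Enzyme 20 nM + cpd, 15 min RT; add b-H3K9 pep 500 nM / SAM 20 uM; 2 h RT; anti-H3K9me1 Ab 0.5 ug/mL + SA donor / anti-rabbit acceptor beads 20 ug/mL each, 10 min; AlphaScreen read.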
# % is set by controls: 0 for no effect and ±100 for the full control effect; potency is the fitted concentration of half-maximal effect; tags give direction and shape of the fitted curve.
# Sequence of UniProt Q96KQ7 (Q96KQ7 whole entry, looked up): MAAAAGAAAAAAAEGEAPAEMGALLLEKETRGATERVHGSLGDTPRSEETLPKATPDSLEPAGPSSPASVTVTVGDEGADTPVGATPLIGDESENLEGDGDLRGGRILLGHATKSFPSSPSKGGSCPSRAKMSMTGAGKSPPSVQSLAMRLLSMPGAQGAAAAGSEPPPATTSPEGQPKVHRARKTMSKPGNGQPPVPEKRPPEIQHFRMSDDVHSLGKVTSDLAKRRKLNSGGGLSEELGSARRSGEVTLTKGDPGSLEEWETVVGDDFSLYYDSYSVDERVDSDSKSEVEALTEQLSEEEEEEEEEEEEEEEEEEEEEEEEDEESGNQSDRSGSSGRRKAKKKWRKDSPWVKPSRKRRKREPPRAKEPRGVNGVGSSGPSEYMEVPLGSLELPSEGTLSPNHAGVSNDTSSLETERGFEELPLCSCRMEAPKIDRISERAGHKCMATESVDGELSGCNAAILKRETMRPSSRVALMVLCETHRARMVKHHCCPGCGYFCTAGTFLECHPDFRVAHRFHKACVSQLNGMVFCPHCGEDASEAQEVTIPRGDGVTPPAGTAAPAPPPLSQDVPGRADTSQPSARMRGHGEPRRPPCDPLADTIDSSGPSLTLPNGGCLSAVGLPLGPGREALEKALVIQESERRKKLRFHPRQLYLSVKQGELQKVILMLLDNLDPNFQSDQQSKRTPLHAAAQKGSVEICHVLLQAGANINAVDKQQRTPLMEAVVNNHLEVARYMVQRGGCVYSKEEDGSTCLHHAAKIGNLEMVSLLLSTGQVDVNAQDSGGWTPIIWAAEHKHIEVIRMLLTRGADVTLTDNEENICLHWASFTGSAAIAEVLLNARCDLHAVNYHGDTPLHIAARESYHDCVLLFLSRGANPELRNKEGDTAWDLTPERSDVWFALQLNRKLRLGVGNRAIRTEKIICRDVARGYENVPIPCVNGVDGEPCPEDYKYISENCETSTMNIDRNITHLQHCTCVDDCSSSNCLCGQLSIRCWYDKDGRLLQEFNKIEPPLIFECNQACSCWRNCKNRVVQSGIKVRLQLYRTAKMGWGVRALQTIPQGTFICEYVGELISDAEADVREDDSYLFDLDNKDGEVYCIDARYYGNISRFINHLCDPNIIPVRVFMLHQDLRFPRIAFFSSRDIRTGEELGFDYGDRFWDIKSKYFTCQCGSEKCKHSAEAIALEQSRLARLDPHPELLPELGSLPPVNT
Compound,Potency,"activity, negative = inhibition"
CNC(=S)N(CCc1c(C)[nH]c2ccc(Cl)cc12)Cc1cccs1,"inconclusive: 39.8 µM [inhibitor, full curve]",
CC1CCCCN1CCNC(=O)c1ccc2c(=O)n(CCc3ccccc3)c(=O)[nH]c2c1 (stereo unspecified),"inconclusive: 20 µM [inhibitor, partial curve, poor fit]",
CCOc1ccc(-c2cc(CCCC(=O)Nc3cccc(OC)c3)no2)cc1,inactive,
O=C(O)C1(c2ccccc2)CCN(S(=O)(=O)c2cccc(Cl)c2)CC1,"inconclusive: 89.1 µM [inhibitor, single point]",
O=C(N/N=C/c1cc(Br)c(O)c(Br)c1)c1cc2c(ccc3ccccc32)o1,"inconclusive: 89.1 µM [inhibitor, single point]",
Cc1ccc(Cl)cc1N1CCN(C(c2ccc(F)cc2)c2nnc(-c3ccccc3)o2)CC1 (stereo unspecified),"inconclusive: 25.1 µM [inhibitor, partial curve, poor fit]",
CC1CCCCC1NC(=O)COC(=O)c1ccccn1 (stereo unspecified),"inconclusive: 39.8 µM [inhibitor, single point]",
CCOC(=O)C1CCCN(Cc2cc(Br)c(OC)cc2OC)C1 (stereo unspecified),"inconclusive: 1.58 µM [inhibitor, full curve, poor fit]",
NC1=NC(=O)/C(=C/c2ccc(-c3ccc(S(N)(=O)=O)cc3)o2)S1,"inconclusive: 79.4 µM [inhibitor, single point]",
Cc1ccc(N(C(C)C(=O)Nc2ccccc2C(=O)N2CCOCC2)S(C)(=O)=O)cc1C (stereo unspecified),,inactive: -5.96% [at 12.7 µM]
O=C(NNc1cccc(Cl)n1)Nc1ccc(Cl)cc1,"inconclusive: 89.1 µM [inhibitor, single point]",
COc1cc(OC)cc(C(=O)Nn2cc(C(=O)Nc3ccccc3F)c3ccccc3c2=O)c1,inactive,
O=C(COC(=O)c1ccccn1)Nc1nccs1,"inconclusive: 56.2 µM [inhibitor, partial curve, poor fit]",
Cc1nn(C)cc1S(=O)(=O)N1CCN(Cc2cccc(Cl)c2)CC1,"inconclusive: 89.1 µM [inhibitor, partial curve, poor fit]",
CC(OC(=O)CC1CC2CCC1C2)C(=O)Nc1ccc(C(N)=O)cc1 (stereo unspecified),"inconclusive: 6.31 µM [inhibitor, single point]",
C=CCc1cc(/C=C2/NC(=O)NC2=O)cc(OCC)c1O,"inconclusive: 79.4 µM [inhibitor, partial curve]",
CN(C)c1ccc(C(=C2C=CC(=[N+](C)C)C=C2)c2c(O)c(S(=O)(=O)[O-])cc3cc(S(=O)(=O)O)ccc23)cc1,"inconclusive: 2.82 µM [inhibitor, partial curve, poor fit]",
CCOC(=O)N1CCC(N(CCN(C)C)C(=S)Nc2cc(Cl)cc(Cl)c2)CC1,"inconclusive: 6.31 µM [inhibitor, single point]",
CCN(CC)CCc1nc(-c2ccccc2)no1,active: 12.6 µM,inactive: 1.64% [at 5.15 µM]
CN(C)Cc1ccccc1-c1cncnc1Nc1ccccc1,,inactive: -0.473% [at 0.501 µM]
COc1ccc(Cl)cc1NC(=O)C/C(C)=N/NC(=O)c1ccc(O)cc1,active: 70.8 µM,
Cc1ccc(OCC(=O)N/N=C/c2ccco2)cc1,inactive,
COc1ccccc1N=C1SCC(=O)N1Cc1ccco1,inactive,
Cc1ccc(S(=O)(=O)N2CCCNCC2)cc1,"inconclusive: 39.8 µM [inhibitor, single point]",

Compound,Potency,"activity, negative = inhibition"
CCc1ccc(OCC(=O)NC(NC(=S)Nc2ccccc2OC)C(Cl)(Cl)Cl)cc1 (stereo unspecified),"inconclusive: 79.4 µM [inhibitor, single point]",
COc1cccc(/C=C2\Sc3ccc(C(=O)NCc4cccnc4)cc3N(C)C2=O)c1,"inconclusive: 89.1 µM [inhibitor, single point]",
COc1cccc(-n2c(C)nc3c(cnn3-c3ccc(Cl)cc3)c2=O)c1,,inactive: 0.677% [at 12.7 µM]
CCOCCOC(=O)c1[nH]c2c(c1C)C(=O)CC(c1ccc(N(C)C)cc1)C2 (stereo unspecified),"inconclusive: 0.794 µM [inhibitor, full curve, poor fit]",
CCc1ccc2[nH]c3nc(SCC(=O)NCC4CCCO4)nnc3c2c1 (stereo unspecified),inactive,
CC(C)(C)C(=O)/C(=C/c1ccc(Cl)cc1)n1cncn1,inactive,
O=C(Nc1ccc(-n2ccc(C(F)(F)F)n2)cc1)c1cccs1,inactive,
COC(=O)C1=C(C)N(CCc2c[nH]c3ccccc23)C(=O)/C1=C\N(C)C,"inconclusive: 35.5 µM [inhibitor, single point]",
CCCN1C(=O)c2cc(C(=O)NCc3cccs3)ccc2C1O (stereo unspecified),"inconclusive: 89.1 µM [inhibitor, single point]",
Cc1ccc(CNC(=O)c2cn(C)c3ccc(S(=O)(=O)N(C)C4CCCCC4)cc3c2=O)cc1,"inconclusive: 28.2 µM [inhibitor, partial curve, poor fit]",
CCc1ccc(-n2nc3ccc(NC(=O)c4cc5ccccc5o4)cc3n2)cc1,inactive,
CCn1c(=O)c(C(C)=O)nc2ccccc21,"inconclusive: 79.4 µM [inhibitor, partial curve]",
Cc1oc2ccc(Br)cc2c(=O)c1-c1nn[nH]n1,"inconclusive: 39.8 µM [inhibitor, single point]",
O=C(Nc1nnc(-c2ccco2)o1)c1ccc(S(=O)(=O)N2CCCC2)cc1,"inconclusive: 89.1 µM [inhibitor, single point]",
c1ccc(-[n+]2nc(Nc3cccc4ccccc34)sc2-c2c3ccccc3cc3ccccc23)cc1,,inactive: 25.8% [at 2.33 µM]
Cc1cc(N2CCOCC2)nc2ccc(Cl)cc12,"inconclusive: 89.1 µM [inhibitor, single point]",
CCCCn1c(N)c(N(CC(C)C)C(=O)c2ccc(S(=O)(=O)N3CCCCC3)cc2)c(=O)[nH]c1=O,"inconclusive: 50.1 µM [inhibitor, partial curve, poor fit]",
CCc1ccc(OCC2c3cc(OC)c(OC)cc3CCN2C(=S)NC)cc1 (stereo unspecified),"inconclusive: 31.6 µM [inhibitor, partial curve, poor fit]",
COc1ccc(N2CCN(C(=O)COC(=O)c3c(-c4ccccc4)noc3C)CC2)cc1,"inconclusive: 1.58 µM [inhibitor, partial curve, poor fit]",
COC(=O)C1CCC(=S)N1C(=O)c1ccccc1 (stereo unspecified),active: 44.7 µM,
Cc1nc(N2C(=O)C(=O)/C(=C(/O)c3ccccc3)C2c2ccco2)sc1C (stereo unspecified),"inconclusive: 12.6 µM [inhibitor, partial curve]",
CCn1cc(CNC(=S)Nc2cccc3ccccc23)cn1,"inconclusive: 79.4 µM [inhibitor, single point]",
Cc1cc(NC(=O)CSc2nnc(-c3cccc(F)c3)n2N)no1,,inactive: -16.5% [at 2.33 µM]
CC(C)Nc1nc(Cl)nc(N(C#N)CN2C(=O)c3ccccc3S2(=O)=O)n1,"inconclusive: 56.2 µM [inhibitor, partial curve]",

Compound,Potency,"activity, negative = inhibition"
CCN1C(=S)SC(=O)C1=C1C=C(C)OC(C)=C1,"inconclusive: 89.1 µM [inhibitor, single point]",
CCN(CC)c1ccc(/C=N/N2CCN(c3ccccc3OC)CC2)cc1,active: 8.91 µM,
CCOc1c(CNCCNC(=O)c2nonc2N)cccc1OC,"inconclusive: 89.1 µM [inhibitor, single point]",
COc1ccc(OC)c(CCNC(=O)CCn2c(=O)c3cccn3c3cccnc32)c1,inactive,
CN(C)CCNC(=O)c1cc2c(s1)-c1ccc(Cl)cc1SC2,"inconclusive: 79.4 µM [inhibitor, single point]",
COc1ccc(CCN(C)C(=O)c2cc(S(=O)(=O)N3CCCCC3)ccc2Cl)cc1OC,inactive,
CCCCN(c1ccccc1)c1ncnc2c1cnn2-c1ccc(Cl)cc1,inactive,
Cc1cc(C(=O)NCC(C)C)c2ccccc2n1,inactive,
Oc1ccccc1/C=N/n1c(-c2cccs2)n[nH]c1=S,active: 1.58 µM,
CCCC(=O)Nc1ccc(NC(=O)Cc2ccccc2)cn1,,inactive: -26.8% [at 12.7 µM]
CN(C)c1ccc(CN(C(=O)COc2ccc(F)cc2)C2CCS(=O)(=O)C2)cc1 (stereo unspecified),,inconclusive: -91% [inhibitor]
COc1cccc(-c2nnc(NC(=O)c3ccc(S(=O)(=O)N4CCOCC4)cc3)o2)c1,inactive,
CC(C)C(=O)N1CCC(Cc2ccccc2)CC1,inactive,
COc1ccc(OCC(=O)Nc2ccc(N3CCCCC3)cc2)cc1,inactive,
COc1cccc(-c2nnc(SCC(=O)N3CCCC3=O)n2-c2ccccc2)c1,"inconclusive: 39.8 µM [inhibitor, single point]",
COc1ccc(-c2nn(CCC(=O)O)cc2/C=C2\SC(N)=NC2=O)cc1,"inconclusive: 89.1 µM [inhibitor, single point]",
Cc1cc(C)c(NC(=O)CSc2nc(=O)n(Cc3ccco3)c3c2CCC3)c(C)c1,inactive,
CSC1=N/C(=C/c2cccnc2)C(=O)N1Cc1ccc(Cl)cc1,"inconclusive: 79.4 µM [inhibitor, partial curve, poor fit]",
O=C(CC1SC(N2CCCC2)=NC1=O)Nc1ccc(C(=O)NCCOc2ccccc2F)cc1 (stereo unspecified),inactive,
O=C(O)Cc1sc(-c2ccccc2)nc1-c1ccccc1,"inconclusive: 79.4 µM [inhibitor, single point]",
CC(=O)c1ccc(N2CCN(S(=O)(=O)c3cccc(S(=O)(=O)N4CCOCC4)c3)CC2)cc1,inactive,
CN1CCN(C(CNC(=O)C(=O)Nc2ccc3c(c2)OCCO3)c2ccc(F)cc2)CC1 (stereo unspecified),"inconclusive: 70.8 µM [inhibitor, single point]",
